B1: Ab#F (antibody, human IgG4 S228P, kappa)
heavy: EVQLVQSGAEVKKPGASVKVSCKASGYTFTSYYMYWVRQAPGQGLEWIGGINPSNGGTNFNEKFKNRATLTVDKSTSTAYMELSSLRSEDTAVYYCTREGNPYYTMNYWGQGTLVTVSSASTKGPSVFPLAPCSRSTSESTAALGCLVKDYFPEPVTVSWNSGALTSGVHTFPAVLQSSGLYSLSSVVTVPSSSLGTKTYTCNVDHKPSNTKVDKRV[human IgG4 Fc with S228P (EU numbers) not listed]
light: DVVMTQSPLSLPVTIGQPASISCKSSQSLLESDGKTYLNWLQQRPGQSPRRLIYLVSKLDSGVPDRFSGSGSGTDFTLKISRVEAEDVGVYYCWQGTHFPWTFGGGTKVEIKRTVAAPSVFIFPPSDEQLKSGTASVVCLLNNFYPREAKVQWKVDNALQSGNSQESVTEQDSKDSTYSLSSTLTLSKADYEKHKVYACEVTHQGLSSPVTKSFNRGEC
B2: Ab#J (antibody, human IgG1, kappa)
heavy: EVQLVQSGAEVKKPGASVKVSCKASGYTFTSYYMYWVRQAPGQGLEWIGGINPSNGGTNFNEKFKNRATLTVDKSTSTAYMELSSLRSEDTAVYYCTREGNPYYTMNYWGQGTLVTVSS[human IgG1 constant region with changes not listed]
light: B1 light
B3: Ab#R (antibody, human IgG4 S228P, kappa, F234A L235A)
heavy: EVQLVQSGAEVKKPGASVKVSCKASGYTFTSYYMYWVRQAPGQGLEWIGGINPSNGGTNFNEKFKNRATLTVDKSTSTAYMELSSLRSEDTAVYYCTREGNPYYTMNYWGQGTLVTVSSASTKGPSVFPLAPCSRSTSESTAALGCLVKDYFPEPVTVSWNSGALTSGVHTFPAVLQSSGLYSLSSVVTVPSSSLGTKTYTCNVDHKPSNTKVDKRV[human IgG4 Fc with S228P F234A L235A (EU numbers) not listed]
light: B1 light

Target: Cx43 (peptide used in the Biacore affinity assay of Example 1)
Experiment: SPR Biacore T200, antibody and Cx43 peptide; format and peptide not given

Row | Kd | Binder
1 | 0.0335 nM | B1
2 | 12.6 nM | B2
3 | 49.2 nM | B3

From US20210163581A1
